Measured values published in patent US11207320B2, “Compositions and methods for cancer expressing PDE3A or SLFN12” (The Broad Institute, Inc., priority 2015, dated 2021).
Further values from the same series stand in other lists.

Tested on: 766 cancer cell lines
Test: Large-scale cell-line viability measurements (766 cancer cell lines, 72 h, AUC)
Type: cell-based, human
Description: Cell lines were treated for 72 hours with concentrations ranging from 66.4 μM-2 nM in 2-fold step dilutions.
To characterize cellular sensitivity to DNMDP further, 766 genomically characterized cancer cell lines were screened for DMNDP sensitivity at concentrations ranging from 66.4 μM to 2 nM in 2-fold dilution steps for 72 hours. From these cell lines, 22 cell lines were categorized as sensitive with a robust Z-score lower than −4, which represented multiple lineages including multiple melanoma cell lines, amongst others (Table 1).
The sensitivity of […] cancer cell lines (CCLs) was measured drawn from 23 different lineages to DNMDP. Each cell line was plated in its preferred media in white opaque 1536-plates at a density of 500 cells/well. After incubating overnight, DNMDP was added by acoustic transfer at 16 concentrations ranging from 66.4 μM-2 nM in 2-fold steps in duplicate (Labcyte Echo 555, Labcyte Inc., Sunnyvale, Calif.). After 72 hours treatment, cellular ATP levels were measured as a surrogate for viability (CELLTITERGLO®, Promega Corporation, Madison, Wis.) according to manufacturer's protocols using a ViewLux Microplate Imager (PerkinElmer, Waltham, Mass.) and normalized to background (media-only) and vehicle (DMSO)-treated control wells.
Concentration response curves were fit using nonlinear fits to 2- or 3-parameter sigmoid functions through all 16 concentrations with the low-concentration asymptote set to the DMSO-normalized value, and an optimal 8-point dose curve spanning the range of compound-sensitivity was identified. The area under the 8-point dose curve (AUC) was computed by numeric integration as a metric for sensitivity for further analysis. Similar sensitivity measurements have been obtained for a collection of 480 other compounds, enabling analyses that identify cell lines responding uniquely to DNMDP (see Broad Institute Cancer Therapeutics Response Portal, a dataset to identify comprehensively relationships between genetic and lineage features of human cancer cell lines and small-molecule sensitivities for complete list of compounds).

[1] = cell line RPMI7951, SKIN, 72 hours
[2] = cell line RPMI8226 (HAEMATOPOIETIC AND LYMPHOID TISSUE)
[3] = cell line RT112 (URINARY TRACT)
[4] = cell line S117, SOFT TISSUE, 72 hours
[5] = cell line SAOS2, BONE, 72 hours
[6] = cell line SCC25 (UPPER AERODIGESTIVE TRACT)
[7] = cell line SF126 (CENTRAL NERVOUS SYSTEM)
[8] = cell line SIGM5, HAEMATOPOIETIC AND LYMPHOID TISSUE, 72 hours
[9] = cell line SIMA, AUTONOMIC GANGLIA, 72 hours
[10] = cell line SKBR3, BREAST, 72 hours
[11] = cell line SKM1, HAEMATOPOIETIC AND LYMPHOID TISSUE, 72 hours
[12] = cell line SKMEL28, SKIN, 72 hours
[13] = cell line SKNAS, AUTONOMIC GANGLIA, 72 hours
[14] = cell line SKNDZ (AUTONOMIC GANGLIA)
[15] = cell line SNU46, UPPER AERODIGESTIVE TRACT, 72 hours
[16] = cell line SNU61, LARGE INTESTINE, 72 hours
[17] = cell line SNU216, STOMACH, 72 hours
[18] = cell line SNU283 (LARGE INTESTINE)
[19] = cell line SNU308 (BILIARY TRACT)
[20] = cell line SNU407 (LARGE INTESTINE)
[21] = cell line SNU466, CENTRAL NERVOUS SYSTEM, 72 hours
[22] = cell line SNU475, LIVER, 72 hours
[23] = cell line SNU489, CENTRAL NERVOUS SYSTEM, 72 hours
[24] = cell line SNU601, STOMACH, 72 hours
[25] = cell line SNU626 (CENTRAL NERVOUS SYSTEM)

For `CCN(CC)c1ccc(C2=NNC(=O)CC2C)cc1[N+](=O)[O-]` (centres unmarked) [DNMDP, 6-(4-(diethylamino)-3-nitrophenyl)-5-methyl-4,5-dihydropyridazin-3(2H)-one], the “DNMDP AUC” value [1] was 7.375, the “Robust Z-score” value [1] was 0.7771 and the “DNMDP AUC” value [2] was 6.8256. For the same molecule, the “Robust Z-score” value [2] was 0.2004, the “DNMDP AUC” value [3] was 6.8313 and the “Robust Z-score” value [3] was 0.2064. For the same molecule, the “DNMDP AUC” value [4] was 8.2668, the “Robust Z-score” value [4] was 1.713 and the “DNMDP AUC” value [5] was 7.1406. The “Robust Z-score” value [5] was 0.5311, the “DNMDP AUC” value (cell line SBC5 (LUNG)) was 6.8494 and the “Robust Z-score” value (cell line SBC5 (LUNG)) was 0.2254. The “DNMDP AUC” value [6] was 6.5527, the “Robust Z-score” value [6] was −0.08602 and the “DNMDP AUC” value [7] was 6.7933. For the same molecule, the “Robust Z-score” value [7] was 0.1665, the “DNMDP AUC” value (cell line SH10TC (STOMACH)) was 6.5448 and the “Robust Z-score” value (cell line SH10TC (STOMACH)) was −0.09431. For the same molecule, the “DNMDP AUC” value [8] was 7.1077, the “Robust Z-score” value [8] was 0.4965 and the “DNMDP AUC” value [9] was 7.6032. The “Robust Z-score” value [9] was 1.017, the “DNMDP AUC” value (cell line SJSA1 (BONE)) was 6.6844 and the “Robust Z-score” value (cell line SJSA1 (BONE)) was 0.05222. For the same molecule, the “DNMDP AUC” value [10] was 7.5494, the “Robust Z-score” value [10] was 0.9602 and the “DNMDP AUC” value (cell line SKES1 (BONE)) was 6.9576. For the same molecule, the “Robust Z-score” value (cell line SKES1 (BONE)) was 0.339, the “DNMDP AUC” value (cell line SKHEP1 (LIVER)) was 6.5773 and the “Robust Z-score” value (cell line SKHEP1 (LIVER)) was −0.0602. For the same molecule, the “DNMDP AUC” value [11] was 7.5234, the “Robust Z-score” value [11] was 0.9329 and the “DNMDP AUC” value (cell line SKMEL1 (SKIN)) was 6.742. The “Robust Z-score” value (cell line SKMEL1 (SKIN)) was 0.1127, the “DNMDP AUC” value (cell line SKMEL2 (SKIN)) was 6.8019 and the “Robust Z-score” value (cell line SKMEL2 (SKIN)) was 0.1756. The “DNMDP AUC” value (cell line SKMEL24 (SKIN)) was 6.6712, the “Robust Z-score” value (cell line SKMEL24 (SKIN)) was 0.03836 and the “DNMDP AUC” value [12] was 7.1392. The “Robust Z-score” value [12] was 0.5296, the “DNMDP AUC” value (cell line SKMEL30 (SKIN)) was 7.079 and the “Robust Z-score” value (cell line SKMEL30 (SKIN)) was 0.4664. For the same molecule, the “DNMDP AUC” value (cell line SKMEL31 (SKIN)) was 6.5659, the “Robust Z-score” value (cell line SKMEL31 (SKIN)) was −0.07216 and the “DNMDP AUC” value (cell line SKMES1 (LUNG)) was 6.5724. The “Robust Z-score” value (cell line SKMES1 (LUNG)) was −0.06534, the “DNMDP AUC” value [13] was 7.145 and the “Robust Z-score” value [13] was 0.5357. The “DNMDP AUC” value [14] was 6.7192, the “Robust Z-score” value [14] was 0.08875 and the “DNMDP AUC” value (cell line SKNMC (BONE)) was 6.7533. For the same molecule, the “Robust Z-score” value (cell line SKNMC (BONE)) was 0.1245, the “DNMDP AUC” value (cell line SNGM (ENDOMETRIUM)) was 6.6038 and the “Robust Z-score” value (cell line SNGM (ENDOMETRIUM)) was −0.03238. For the same molecule, the “DNMDP AUC” value [15] was 7.8035, the “Robust Z-score” value [15] was 1.227 and the “DNMDP AUC” value [16] was 7.6228. For the same molecule, the “Robust Z-score” value [16] was 1.037, the “DNMDP AUC” value (cell line SNU182 (LIVER)) was 7.0252 and the “Robust Z-score” value (cell line SNU182 (LIVER)) was 0.4099. The “DNMDP AUC” value (cell line SNU213 (PANCREAS)) was 6.9923, the “Robust Z-score” value (cell line SNU213 (PANCREAS)) was 0.3754 and the “DNMDP AUC” value [17] was 7.6319. The “Robust Z-score” value [17] was 1.047, the “DNMDP AUC” value [18] was 6.6315 and the “Robust Z-score” value [18] was −0.003306. The “DNMDP AUC” value [19] was 6.8314, the “Robust Z-score” value [19] was 0.2065 and the “DNMDP AUC” value [20] was 6.8062. The “Robust Z-score” value [20] was 0.1801, the “DNMDP AUC” value (cell line SNU410 (PANCREAS)) was 7.0646 and the “Robust Z-score” value (cell line SNU410 (PANCREAS)) was 0.4513. For the same molecule, the “DNMDP AUC” value [21] was 7.7589, the “Robust Z-score” value [21] was 1.18 and the “DNMDP AUC” value [22] was 7.4091. The “Robust Z-score” value [22] was 0.8129, the “DNMDP AUC” value [23] was 7.2056 and the “Robust Z-score” value [23] was 0.5993. For the same molecule, the “DNMDP AUC” value [24] was 7.3091, the “Robust Z-score” value [24] was 0.7079 and the “DNMDP AUC” value [25] was 6.8886. The “Robust Z-score” value [25] was 0.2666 and the “DNMDP AUC” value (cell line SNU668 (STOMACH)) was 7.0126.
